Measurements from PubChem BioAssay AID488969 (Vanderbilt High Throughput Screening Facility, 2010).
In all, about 110,000 compounds were measured (“z-score”: median about -0.1, highest 2% from about 2 on). The list shows a part of the results. Activity calls are given as the source filed them.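 How the source made its calls: active means z-score in the third read window above 3 or below -3; inactive means the rest.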 Non-standard residues stand in square brackets, D forms with d. Residues, ends and D or L forms follow the SMILES beside them. ξ: configuration not given here. *: point of attachment. Cbz = O=C(OCc1ccccc1)*; ξA = CC(N)C(=O)O

The compounds below were run against Metabotropic glutamate receptor 8 (Rattus norvegicus) (UniProt P70579) (assay: mGluR8 Gi/Go-coupled signaling modulation – cell-based, rat, thallium flux, HTS, primary screen (AID 488969)). Details: HEK293 rat mGluR8, GIRK (G protein-gated inwardly rectifying potassium channel) thallium flux, FluoZin2; at 10 µM; stronger effect = higher value; submaximal glutamate (EC20) added with thallium.
Chain of UniProt P70579 (P70579 whole entry, looked up): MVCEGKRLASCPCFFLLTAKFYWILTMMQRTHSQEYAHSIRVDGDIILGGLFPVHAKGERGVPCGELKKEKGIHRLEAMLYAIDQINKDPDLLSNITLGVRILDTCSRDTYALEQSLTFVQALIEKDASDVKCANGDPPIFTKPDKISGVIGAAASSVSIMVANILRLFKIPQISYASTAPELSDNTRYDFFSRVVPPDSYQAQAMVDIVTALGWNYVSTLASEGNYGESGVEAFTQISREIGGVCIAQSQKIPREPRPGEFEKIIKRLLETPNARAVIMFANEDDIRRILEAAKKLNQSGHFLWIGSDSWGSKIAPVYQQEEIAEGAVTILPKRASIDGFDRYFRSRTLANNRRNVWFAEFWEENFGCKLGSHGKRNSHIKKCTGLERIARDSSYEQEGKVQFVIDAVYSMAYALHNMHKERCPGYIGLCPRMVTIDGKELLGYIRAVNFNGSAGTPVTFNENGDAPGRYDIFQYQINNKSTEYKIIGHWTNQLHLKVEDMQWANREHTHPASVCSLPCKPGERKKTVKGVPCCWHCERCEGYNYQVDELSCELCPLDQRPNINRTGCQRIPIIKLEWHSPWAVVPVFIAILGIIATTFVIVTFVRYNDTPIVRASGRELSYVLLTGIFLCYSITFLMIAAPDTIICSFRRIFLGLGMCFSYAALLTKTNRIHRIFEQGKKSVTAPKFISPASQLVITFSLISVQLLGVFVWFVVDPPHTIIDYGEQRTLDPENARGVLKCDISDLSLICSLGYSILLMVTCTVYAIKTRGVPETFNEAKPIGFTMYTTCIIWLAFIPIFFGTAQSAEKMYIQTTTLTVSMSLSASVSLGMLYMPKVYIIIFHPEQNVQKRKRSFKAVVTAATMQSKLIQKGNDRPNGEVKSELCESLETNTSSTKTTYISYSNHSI
`CC1CCCC(NC(=O)COC(=O)[C@@H]2CC(O)CN2S(=O)(=O)c2ccc3c(c2)OCCO3)C1C` (some centres undefined) gave a z-score of -0.166.
`COc1ccccc1CNC(=O)c1ccc(OC(F)F)c(OC)c1` showed a z-score of -0.587.
In the case of `CCN(CC)c1ccc(CN(C(=O)c2ccco2)C2CCS(=O)(=O)C2)cc1` (centres undefined), the z-score is reported as 0.0162.
`Cc1ccc(Cn2c(=O)n(CCC(=O)NCc3ccc4c(c3)OCO4)c(=O)c3ccccc32)cc1` gave a z-score of -0.259.
In the case of `COC(=O)C1=C(C)NC(=O)NC1/C=C/c1ccccc1` (centres undefined), the z-score is reported as 0.476.
`O=C(Nc1cccc(C(=O)O)c1)/C(=C\c1ccccc1)NC(=O)c1ccccc1Cl` was tested, and the z-score was -0.157.
For `Nc1[nH]n2c(=O)cc(-c3ccccc3)nc2c1N=Nc1ccccc1`, the z-score was -0.256.
`CCOC(=O)c1cc(-c2ccccc2)nc2nc(N3CCCCC3)sc12` was tested, and the z-score was -0.0211.
`CCOc1ccc(C(F)(F)F)cc1NC(C)=O` was tested, and the z-score was 0.301.
With `COC(=O)CNC(=O)C(C)NC(=O)CNC(=O)OCc1ccccc1` (stereo not drawn) (Cbz-Gly-[ξA]-Gly-OMe) the z-score was 0.642.
Work on `COc1ccc(-c2nn(C)c(=O)c3ccccc23)cc1NC(=O)COc1ccccc1` yielded a z-score of -0.615.
Work on `Cc1ccc(NC(=O)CS(=O)CC(=O)NCCCc2ccccc2)cc1Cl` (centres undefined) yielded a z-score of -0.113.
With `CSc1nn(CCc2ccncc2)c(=S)s1` the z-score was 1.18.
`Cc1cc(=O)[nH]c(SCC(=O)Nc2cccc(C(F)(F)F)c2)n1` showed a z-score of -0.601.
`CCc1ccc(OCC(=O)NNC(=O)CSc2ncnc3sc(C)c(C)c23)cc1` was tested, and the z-score was 0.487.
For `CC1CCc2nc3ccc(S(=O)(=O)N4CCC(C(=O)N5CCCCC5)CC4)cc3c(C(=O)O)c2C1` (centres undefined), the z-score was -0.166.
`COC(=O)c1ccccc1NC(=S)N(Cc1ccc2c(c1)OCO2)Cc1cc2cc(OC)ccc2[nH]c1=O` showed a z-score of -0.529.
`CCOC(=O)c1c(C)oc2ccc(NS(=O)(=O)c3cccs3)cc12` showed a z-score of 0.15.
With `Cc1ccc(C)c(NC(=S)NCCSc2ccc(Cl)cc2)c1` the z-score was 0.0299.
With `CCn1c(SCC(=O)N2CCCCC2C)nnc1-c1ccc(S(=O)(=O)N2CCN(C)CC2)cc1` (centres undefined) the z-score was 0.0291.
For `COc1ccc(NC(=O)c2c(SC)nsc2SC)cc1`, the z-score was 0.0111.
`O=C(CSc1nc2ccccc2c(=O)n1Cc1ccccc1)NCc1ccco1` gave a z-score of 0.62.
`Cc1ccc(S(=O)(=O)N2CC=C(c3c(C)n(C)c4ccccc34)CC2)cc1` gave a z-score of 0.174.
`CCc1nccn1S(=O)(=O)c1ccc(OC)c(OC)c1` showed a z-score of -0.00946.
With `O=C(COC(=O)C(Cc1ccccc1)NC(=O)c1ccccc1)c1ccccc1` (centres undefined) the z-score was -0.519.
In the case of `CCOc1cc2[nH]c(=S)n(CCC(=O)N3CCc4ccccc4C3)c(=O)c2cc1OCC`, the z-score is reported as -0.251.
`Cc1ccc(Oc2nc3ccccn3c(=O)c2/C=C(\C#N)C(=O)Nc2c(C)n(C)n(-c3ccccc3)c2=O)c(C)c1` was tested, and the z-score was -0.352.
In the case of `O=C(O)c1ccccc1Nc1ccccc1C(=O)O`, the z-score is reported as -0.112.
`O=C(CN1C(=O)C(=O)c2ccccc21)NC1CCCCC1` gave a z-score of 0.0555.
`O=C1CC(Cc2ccccc2)C(=O)N1CCc1ccc2c(c1)OCO2` (centres undefined) gave a z-score of -0.19.
For `Cc1cc(N2CCCCC2)nc(N2CCOCC2)n1`, the z-score was 0.0961.
In the case of `CC(=O)OC1CCC(OC(C)=O)c2c1n([O-])c(C)c(C)[n+]2=O` (centres undefined), the z-score is reported as -0.212.
Work on `CCCCNc1nc(-c2ccccc2)nc(-n2ccnc2)n1` yielded a z-score of -0.231.
In the case of `CCOc1ccccc1NC(=O)N1CCCC1C(=O)Nc1nnc(CC)s1` (centres undefined), the z-score is reported as -0.537.
Work on `O=C(NCc1ccc2c(c1)OCO2)C(C(=O)c1ccccc1)n1cc(Cl)ccc1=O` (centres undefined) yielded a z-score of 0.237.
In the case of `O=C(O)CCC(=O)Nc1ccc2c(c1)oc1ccccc12`, the z-score is reported as -0.656.
For `CCOP(=O)(OCC)C(NC(=O)Nc1cccc(Cl)c1)C(N)=O` (centres undefined), the z-score was -0.0798.
Work on `COc1ccc2c(c1)c1ncn(CCN3CCNCC3)c(=O)c1n2C` yielded a z-score of -0.141.
With `Cc1cccc(NCc2ccccc2O)c1C` the z-score was 0.825.
For `COC(=O)c1cc(O)c(OCc2ccccc2)c(O)c1`, the z-score was -0.276.
With `Cc1ccccc1NC(=O)c1ccc(S(=O)(=O)C(F)F)cc1` the z-score was -0.0622.
`CCOC(=O)C(=CNc1cc(C)ccn1)C(=O)OCC` was tested, and the z-score was 0.94.
For `Cc1cccc(Nc2nnc(SCC(=O)NC(=O)Nc3ccc4c(c3)OCCO4)s2)c1`, the z-score was -0.0418.
Compound `CCOC(=O)c1[nH]c(C)c(C(=O)OCCN2C(=O)c3ccccc3C2=O)c1C` has a z-score of 0.204.
For `CCn1c(C)nc2cc(S(=O)(=O)C(F)(F)F)ccc21`, the z-score was -0.753.
`O=C1Nc2ccccc2SC(c2ccccc2)C1O` (centres undefined) was tested, and the z-score was -0.0924.
`Nc1nc2ccccc2n1/N=C/c1ccc(Br)cc1` gave a z-score of 1.29.
`COc1ccc(NC(=O)Nc2ccc(OC)c(OC)c2)c([N+](=O)[O-])c1` gave a z-score of -0.42.
Compound `COc1ccc(NC(=O)c2cccs2)cc1OC` has a z-score of 0.0154.
For `COc1cc2c(OC)cccc2cc1C(=O)O`, the z-score was -0.44.
In the case of `C=CCn1c(SCc2c(C)noc2C)nc2sc3c(c2c1=O)CCCC3`, the z-score is reported as -0.0819.
`Cc1cc(C(F)(F)F)n2nc(-c3cnn(C)c3C(F)(F)F)cc2n1` showed a z-score of -0.144.
Work on `COc1ccc(OC)c(/C=C/C(=O)Nc2ccc3c(c2)CCC3)c1` yielded a z-score of -0.515.
`Cn1c(=O)c2c(nc(NCCc3ccccc3)n2Cc2ccccc2)n(C)c1=O` gave a z-score of -0.49.
With `COc1cccc(-c2nnc(-c3ccc(C(F)(F)F)cc3)o2)c1OC` the z-score was 0.256.
`O=S(=O)(c1cccc(C(F)(F)F)c1)N(CCCN1CCOCC1)Cc1cccs1` gave a z-score of -0.589.
Compound `Cc1nc(NCCc2cnc[nH]2)c2oc3ccccc3c2n1` has a z-score of -1.54.
`COc1ccc(N(Cc2ccccc2)S(=O)(=O)c2cccc(C(=O)NC3=NCCS3)c2)cc1` gave a z-score of -0.206.
In the case of `COc1ccccc1Nc1nnc(SCC(=O)NC(=O)Nc2ccc3c(c2)OCCO3)s1`, the z-score is reported as -0.138.
`O=C(NC(=S)Nc1ccc2c(c1)OCCO2)c1cccc(Br)c1` was tested, and the z-score was 0.945.
`C/C(=N\NC(N)=O)c1cccc(Cl)c1` gave a z-score of -0.0531.
`O=C(Nc1cc(C(F)(F)F)ccc1N1CCOCC1)c1ccc(Cl)nc1` showed a z-score of 0.281.
Compound `O=C1CC(N2C(=O)/C(=C/C=C/c3ccccc3)SC2=S)C(=O)N1c1ccccc1` (centres undefined) has a z-score of -0.134.
For `CCCCn1nnc(NC(=O)Cc2ccc(Cl)cc2)n1`, the z-score was -0.00798.
Work on `COc1cc2[nH]c(=O)n(CCCCCC(=O)N3CC=C(c4ccccc4)CC3)c(=O)c2cc1OC` yielded a z-score of -0.216.
`CC1CC(=O)c2cnc(N3CCOCC3)nc2C1` (centres undefined) gave a z-score of -0.0519.
Compound `CCCS(=O)(=O)NCCc1cc2cc(C)c(C)cc2[nH]c1=O` has a z-score of 0.195.
Work on `CC1(C)CC(=O)c2cc(C(=O)N3CCCC(C)(C)C3)c(=O)n(-c3ccccc3)c2C1` yielded a z-score of -1.59.
In the case of `O=C(Nc1ccccc1Cl)c1cc(S(=O)(=O)N2CCCCC2)ccc1N1CCOCC1`, the z-score is reported as 0.266.
`CCOC(=O)CNC(=O)c1sc(NC(=O)c2cccc(F)c2)nc1C` was tested, and the z-score was 0.135.
With `COc1ccc(NC(=O)CSC2CCCCC2)cc1` the z-score was 0.542.
`CCOC(=O)N1CCN(C(=O)CSc2nc3c([nH]c4ccccc43)c(=O)n2C)CC1` gave a z-score of -0.103.
`O=C(O)C1CCCCC1C(=O)NC1CCCCC1` (centres undefined) gave a z-score of 0.0368.
With `CCOC(=O)Cc1csc(NS(=O)(=O)c2ccc(Cl)cc2)n1` the z-score was 0.0252.
With `COc1ccc(C(=O)Nc2ccccc2C(=O)NCCN2CCOCC2)cc1` the z-score was -0.271.
Compound `CC(OC(=O)c1cccnc1SCc1cc(=O)n2ccccc2n1)c1ccccn1` (centres undefined) has a z-score of -0.0745.
`CCOC(=O)c1[nH]c2ccc(OC)cc2c1NC(=O)CCN1CCc2ccccc2C1` was tested, and the z-score was -0.404.
Compound `N#Cc1c[nH]n2c(=O)cc(Cc3ccccc3)nc12` has a z-score of -0.113.
`Cc1nn(Cc2ccccc2)c(Cl)c1C(=O)NCc1ccc(C)n1C` gave a z-score of -0.137.
For `CCOC(=O)c1ccc(NC(=O)c2ccc(NC(=O)c3ccccc3)cc2)cc1`, the z-score was -0.341.
Compound `Cc1cccc(N2CCN(C(=O)CN3CCOc4ccccc43)CC2C)c1` (centres undefined) has a z-score of 1.14.
In the case of `CSC(=NC#N)N1CCN(c2ccc(Cl)cc2)CC1`, the z-score is reported as -0.0515.
`CCCc1nn(-c2cc(Cl)ccc2OC)c2c1C(=O)CCC2` was tested, and the z-score was 0.0593.
Compound `O=C(CS(=O)(=O)c1c[nH]c2ccccc12)N1CCCCC1` has a z-score of -1.47.
Work on `COc1cccc(C2NC(=S)NC3=C2CCc2ccccc23)c1` (centres undefined) yielded a z-score of -0.168.
`O=C(N1CCCCCC1)N1CCN(S(=O)(=O)N2CCCCC2)CC1` showed a z-score of 1.11.
Compound `CN(C)CCOc1nc(-c2ccccc2)nc2c1oc1ccccc12` has a z-score of 0.11.
With `CCOC(=O)N1CCN(C(=O)CSc2nc(-c3cccc(C)c3)ns2)CC1` the z-score was 0.228.
For `COCc1cc(C)nc2sc(C(=O)N3CCCC3)c(N)c12`, the z-score was -0.117.
`Cc1cc(/C=C2/C(=O)NN(c3ccccc3)C2=O)c(C)n1-c1cccc(O)c1` showed a z-score of -0.338.
With `CCOc1ccc(OCc2ccc(C(=O)NCc3cccnc3)o2)cc1` the z-score was -0.238.
Compound `CN1CCCC1CCNS(=O)(=O)c1ccc(Br)cc1` (centres undefined) has a z-score of 0.0186.
Compound `Cc1cc(C)c2c(c1)c(C)cc1nnc(SCC(=O)c3cccs3)n12` has a z-score of 0.0415.
Work on `Cn1c(Cc2cccs2)nnc1SCC(=O)N1CCc2ccccc21` yielded a z-score of -0.334.
For `N#CC1=C(N)Oc2cc(O)c(C=Nc3ccccc3)cc2C1c1ccccc1` (centres undefined), the z-score was -0.423.
Work on `N#Cc1ccc(COC(=O)C2CCC(=O)N2)cc1` (centres undefined) yielded a z-score of -0.0591.
In the case of `CCCC(=O)n1nc(-c2ccccc2)nc1N`, the z-score is reported as active: 9.34.
`Cc1cc(=O)[nH]c(Nc2c(C)n(C)n(-c3ccccc3)c2=O)n1` gave a z-score of -0.182.
For `COc1cc2c(cc1NC(=O)COC(=O)Cn1cnc3ccccc31)oc1ccccc12`, the z-score was 0.0926.
`Cc1ccc(NC(=O)c2ccc(OC(=O)c3cc4ccccc4o3)cc2)cc1` was tested, and the z-score was -0.291.
`CCCc1cc(=O)oc2cc(C)cc(O)c12` showed a z-score of -0.654.
In the case of `CC(Oc1ccc(Cl)cc1Cl)C(=O)Nc1cccnc1` (centres undefined), the z-score is reported as -0.438.
`Cc1ccc(OCC(=O)NCC(=O)Nc2ccc(F)c(F)c2F)c([N+](=O)[O-])n1` showed a z-score of 0.614.
With `Cc1ccc(NC(=O)c2cccc(S(=O)(=O)N(C)c3ccccc3)c2)cc1S(=O)(=O)N1CCOCC1` the z-score was -0.453.
Work on `Cn1c(O)c(C2=c3ccccc3=NC2=O)sc1=Nc1ccc(Cl)cc1` yielded a z-score of -1.17.
`CCOc1ccc(CNC(=S)N/N=C/c2ccncc2)cc1` was tested, and the z-score was 0.269.
`N#Cc1nc(-c2ccc(OCc3ccc(Cl)cc3)cc2)oc1NCc1cccnc1` showed a z-score of -0.419.
`CC1(C)CC(=O)C(C=NCCc2ccc(S(N)(=O)=O)cc2)=C(O)C1` gave a z-score of -0.0513.
`C/C(=N/NC(=O)c1ccoc1C)C12CC3CC(CC(C3)C1)C2` gave a z-score of 0.37.
